# Measured values published in paper PMC4336329 (PLoS ONE, 2015).
# About 2,200 (0.71%) of roughly 310,000 compounds showed an effect of 50% or more. Effects have a minus sign here. Some of the results follow.
# Target: human ether-à-go-go-related gene (hERG) potassium channel (human, UniProt Q12809)
# Experiment: primary screen, population patch clamp on CHO cells stably expressing hERG
# Sequence of human ether-à-go-go-related gene (hERG) potassium channel (Q12809 whole entry, looked up): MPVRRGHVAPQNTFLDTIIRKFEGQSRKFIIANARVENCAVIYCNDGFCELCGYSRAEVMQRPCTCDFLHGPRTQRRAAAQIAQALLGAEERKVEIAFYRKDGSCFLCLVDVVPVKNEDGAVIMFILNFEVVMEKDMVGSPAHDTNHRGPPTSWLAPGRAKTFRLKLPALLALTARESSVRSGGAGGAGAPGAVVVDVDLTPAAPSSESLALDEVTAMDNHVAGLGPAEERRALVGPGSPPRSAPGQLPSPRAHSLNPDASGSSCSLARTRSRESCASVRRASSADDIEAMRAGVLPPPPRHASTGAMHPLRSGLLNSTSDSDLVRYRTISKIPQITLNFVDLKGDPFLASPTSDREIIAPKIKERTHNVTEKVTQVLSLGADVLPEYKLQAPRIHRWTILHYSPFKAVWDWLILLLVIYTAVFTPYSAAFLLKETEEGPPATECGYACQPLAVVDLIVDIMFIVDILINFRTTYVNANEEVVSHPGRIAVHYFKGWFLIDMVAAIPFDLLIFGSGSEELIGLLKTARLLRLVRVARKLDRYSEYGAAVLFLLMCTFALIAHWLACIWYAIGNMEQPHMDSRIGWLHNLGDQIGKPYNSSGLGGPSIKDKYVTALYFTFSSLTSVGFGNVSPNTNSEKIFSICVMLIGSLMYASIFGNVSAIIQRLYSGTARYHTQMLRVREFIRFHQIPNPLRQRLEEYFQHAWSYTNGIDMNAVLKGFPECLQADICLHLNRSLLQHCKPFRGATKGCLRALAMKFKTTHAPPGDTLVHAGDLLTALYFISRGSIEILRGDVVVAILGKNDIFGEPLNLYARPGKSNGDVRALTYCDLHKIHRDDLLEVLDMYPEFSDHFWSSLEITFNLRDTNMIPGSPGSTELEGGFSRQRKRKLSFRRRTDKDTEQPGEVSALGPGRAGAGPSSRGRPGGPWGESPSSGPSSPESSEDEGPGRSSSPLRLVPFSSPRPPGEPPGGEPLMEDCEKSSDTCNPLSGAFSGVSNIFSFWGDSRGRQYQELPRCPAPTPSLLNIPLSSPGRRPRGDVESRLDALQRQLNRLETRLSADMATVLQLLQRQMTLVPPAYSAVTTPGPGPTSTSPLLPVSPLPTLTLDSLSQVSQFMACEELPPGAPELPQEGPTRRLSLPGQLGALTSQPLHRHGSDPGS
row,Compound,"hERG current change (%, negative = inhibition) at 1uM [%]"
1,OCC1(CCOc2ccccc2)CCN(Cc2ccc(OC(F)F)cc2)CC1,-87.1
2,Oc1ccc(C2=NNC(c3ccc(O)cc3)=NN2)cc1,1.9
3,N#CCCN(C(=O)COC(=O)c1nc(Cl)ccc1Cl)c1ccccc1,9.21
4,O=C(Cn1c(=O)cnc2ccccc21)Nc1cccc(S(=O)(=O)N2CCCCC2)c1,1
5,C=CCn1c(O)c(/C=C2/C=c3ccccc3=N2)c(=O)[nH]c1=S,19.1
6,CCc1nccc2c1[nH]c1ccccc12,1.65
7,CCc1ccccc1Oc1ccc(S(=O)(=O)N2CCN(C)CC2)cn1,2.87
8,COc1ccccc1NS(=O)(=O)c1ccc(C)c(C(=O)NCc2cccnc2)c1,-0.314
9,COc1ccc(C(=O)NC(=S)Nc2ccc3oc(=O)ccc3c2)cc1[N+](=O)[O-],4.44
10,C=CCNC(=O)c1nc2ccccc2s1,-2.93
11,COc1ccc(/C=N/N=C2/NC(=O)C(c3ccccc3)(c3ccccc3)S2)cc1,12.2
12,COC(=O)CCN(C(=O)c1ccc2c(c1)OCO2)c1ccccn1,7.88
13,O=C(CSc1nncs1)Nc1ccc2c(c1)OCCO2,15
14,C=CCNC(=O)c1ccc(N(C)S(=O)(=O)c2ccc(OC)cc2)cc1,-12.8
15,O=C(NCc1ccco1)C1CCCN(S(=O)(=O)c2ccc(Br)cc2)C1 (centres unmarked),8.57
16,COc1cc(/C=N/NC(=O)c2sc(N)c(C#N)c2C)cc(Br)c1O,7.51
17,CN(C)c1nc(=S)nc(NCc2ccccc2)[nH]1,-4.71
18,O=C1CCCC(O)=C1C=NCCc1ccccc1,5.37
19,CCOC(=O)C1CCN(C(=O)C2CCCCC2)CC1,13.4
20,CC(=O)Nc1c([N+](=O)[O-])cc(C)c(Cl)c1[N+](=O)[O-],14.4
21,Cc1c(NC(=O)c2ccc(N(C)S(=O)(=O)c3ccccc3)cc2)c(=O)n(-c2ccccc2)n1C,7.12
22,Cc1cccc(C(C)C)c1NC(=O)C(C)OC(=O)Cn1cnc2c1c(=O)n(C)c(=O)n2C (centres unmarked),10.9
23,COc1ccc(-n2cnnc2SCC(=O)N2CCN(c3ccccc3)CC2)cc1,-15.6

row,Compound,"hERG current change (%, negative = inhibition) at 1uM [%]"
1,CC1CN(C(=O)COC(=O)c2ccccc2O)CC(C)O1 (centres unmarked),15.4
2,Cc1cccc(NS(=O)(=O)c2cc3c4c(c2)CCC(=O)N4CCC3)c1,4.06
3,CC(NCC(=O)Nc1ccccc1C(=O)NC1CC1)c1ccccc1Cl (centres unmarked),3.12
4,CCN(CC)S(=O)(=O)c1cccc(C(=O)N[C@@H](C)c2nc3ccccc3[nH]2)c1,10.6
5,Cc1ccc(N2C(=O)C3ON(c4ccccc4)C(CC(C)C)C3C2=O)cc1 (centres unmarked),9.2
6,COc1ccc(C2/C=C\CN(S(=O)(=O)c3ccc(C)cc3)[C@H](Cc3ccccc3)C(=O)N2Cc2ccc(F)cc2)cc1 (some centres unmarked),6.38
7,CSc1nsc(SC)c1C(=O)Nc1ccc(C)cc1,12.6
8,COCCCN(C)C1CCN(C(=O)Nc2ccc(F)cc2)CC1,-2.37
9,CCCCCCCCCCSc1n[nH]c(N)n1,13.5
10,O=C(O)CNC(=O)CC1S/C(=N/N=C/c2ccccc2O)NC1=O (centres unmarked),-6.09
11,c1ccc(CCNc2ncnc3c2nnn3Cc2ccccc2)cc1,-2.59
12,COc1ccc(OC)c2c1cc(C(=O)N[C@@H](C)C(=O)N[C@@H](C(=O)O)c1ccccc1)n2C,15
13,CCOc1ccc(NC(=O)Cn2nnc3c(cnn3-c3ccc(F)cc3)c2=O)cc1,18
14,Cc1cc(Nc2ccc(F)cc2F)n2ncnc2n1,9.33
15,CCOC(=O)CNC(=O)c1cccnc1Oc1ccc(Cl)cc1,13.1
16,O=S(=O)(NCCCN1CCOCC1)c1ccc(Cl)s1,13.7
17,CCOc1ccc2nc(NCCNC(=O)c3cc(OC)c(OC)c(OC)c3)c(C#N)cc2c1,9.95
18,O=C(CCCN1C(=O)/C(=C/c2ccc(F)cc2)SC1=S)NC1CCS(=O)(=O)C1 (centres unmarked),17.7
19,CC1CCN(c2nc3c(N)ncnc3n2[C@@H]2O[C@H](CO)[C@@H](O)[C@H]2O)CC1,18
20,Clc1cccc(Cl)c1COc1ccccc1CNn1cnnc1,11.9
21,COc1ccc2nc(SCC(=O)NCc3ccccc3)[nH]c2c1,10.5
22,CC(C)(C)NC(=O)C(c1ccccc1)N(C(=O)CNC(=O)c1cccs1)c1cccnc1 (centres unmarked),8.51
23,c1ccc(-c2nc(NCc3cccnc3)c3ccccc3n2)cc1,11.5

row,Compound,"hERG current change (%, negative = inhibition) at 1uM [%]"
1,CCC(C)(C)n1nnnc1C(c1cccs1)N1CCN(c2nc3ccccc3s2)CC1 (centres unmarked),13.2
2,Cc1ccc(NC(=S)NNC(=O)c2ccc(N3CCOCC3)c([N+](=O)[O-])c2)cc1C,12.9
3,CCC(=O)Nc1c(-c2ccccc2Cl)c(=O)c2ccccc2n1CC,11.5
4,COc1ccc(C)cc1NC(=O)C(=O)NNC(=O)c1ccco1,12.3
5,CCn1cc(CCC(=O)NCc2ccc(F)cc2)c2ccccc21,10.2
6,COc1ccc(-n2c(/C=C/c3ccc(O)c(OC)c3)nc3ccccc3c2=O)cc1,10.4
7,CCc1ccc(CNC(=O)c2ccc3c(c2)NC(=O)C(N2CCOCC2)S3)cc1 (centres unmarked),7.74
8,O=c1c2c(n3cnnc3n1-c1ccccc1)-c1ccccc1CC21CCCCC1,-2.98
9,CCCCCN(C(=O)CCC(=O)OCC(=O)N(CC)c1ccccc1)c1c(N)n(CCCC)c(=O)[nH]c1=O,7.91
10,Cc1cccc(N(C(=O)c2cnc3n(c2=O)CCS3)C2CCCCC2)c1,-0.574
11,Cc1cc(SCC(=O)N/N=C/c2ccc(C(=O)O)cc2)nc2ccccc12,0.168
12,CCn1cc(CN2CCC(n3nccc3NC(=O)c3ccc(OC)cc3)CC2)cn1,13
13,COc1ccc(CNC(=O)C2CC=CCC2C(=O)O)cc1OC (centres unmarked),9.92
14,Cc1cccc(OCC(=O)N2CCOCC2)c1,17.1
15,Cc1cccc(C)c1NC(=O)CSc1nnnn1C,4.84
16,COc1ccc2nc(C)cc(N3CCN(S(=O)(=O)c4ccccc4F)CC3)c2c1,-62.2
17,Cn1c(CN2CCOCC2)nnc1SCC(N)=O,15.8
18,COC(=O)c1ccc(C(=O)NCCCCO)cc1,7.1
19,Cc1cc(NC(=O)CSc2cc(Cl)ccc2Cl)n(-c2ccccc2)n1,7.36
20,C[C@]12C=CC(=O)C=C1CCC1C3CC[C@](O)(C(=O)CO)[C@@]3(C)CC3OC312 (some centres unmarked),10.7
21,N#C/C(=C/C=C/c1ccccc1)C(=O)Nc1ccccc1,5.83
22,CS(=O)(=O)c1cccc(C(=O)N(CCc2ccccc2)Cc2cccs2)c1,-14.9
23,CCC(=N\NC(=O)COc1ccccc1OC)/C(CC)=N/NC(=O)COc1ccccc1OC,17.6

row,Compound,"hERG current change (%, negative = inhibition) at 1uM [%]"
1,O=C(NCc1ccco1)c1cc(C(=O)C2CCCCC2)c[nH]1,16.9
2,O=C1/C(=C/c2ccncc2)N=C2CCCCCN12,0.473
3,Cc1ccc(C)c(SCC(=O)OCC(=O)c2ccco2)c1,11
4,Cc1ccc(C(=O)NCc2cccnc2)cc1S(=O)(=O)N1CCCCCC1,-14.3
5,C[C@@H](NC(=O)OC(C)(C)C)C(=O)NCC1CCC(C(=O)N[C@@H](Cc2ccccc2)C(=O)O)CC1 (some centres unmarked),9.23
6,Cc1ccc(O)c(-c2cc(C(F)(F)C(F)F)nc(-c3ccccc3)n2)c1,9.55
7,Cc1ccsc1C(C(=O)NC1CCCCC1)N(C(=O)c1csnn1)C1CC1 (centres unmarked),9.66
8,CCCN(CCC)c1cc(Cl)nc(N)n1,6.41
9,COc1ccc(/C=N/Nc2cc(C)nc3ccc(Br)cc23)cc1,1.03
10,CC(=O)N1CCN(c2ccc(NC(=S)NC(=O)c3ccc(C)c([N+](=O)[O-])c3)cc2)CC1,11.7
11,CC1CCCCC1NCC(=O)NCc1ccc(F)cc1.O=C(O)C(=O)O (centres unmarked),7.92
12,COc1ccc(C2=CC(c3ccc(Cl)cc3)n3cnnc3N2)cc1OC (centres unmarked),2.53
13,Cc1cc(C)c(NC(=O)COC(=O)c2cccc3c2C(=O)c2ccccc2C3=O)c(C)c1,12.9
14,CCCn1c(SC(C)C(=O)NCC2CCCO2)nc2sc(CC)cc2c1=O (centres unmarked),3.13
15,O=S(=O)(c1ccccc1)N1CCC2(CC1)CO2,8.02
16,COc1cccc2sc(N(C)c3ccccc3)nc12,15.3
17,O=C(CCC(=O)NNC(=O)Cc1ccccc1)NCc1ccccc1,13.7
18,O=C1c2ccccc2-c2c1nc1c([n+]2[O-])CCCC1,11
19,O=C(NCCc1ccccc1)c1n[nH]c(=O)c2ccccc12,5.75
20,CCO[C@@H]1OC(C(=O)NC2CC2)=C[C@H](c2coc3ccccc3c2=O)[C@H]1CCCO,7.01
